In the supplement of paper PMC11876631:
± gives the standard deviation of the averaged measurements. Laboratory Escherichia coli strains with one amino-acid change in an essential protein, pooled on minimal glucose agar with carbenicillin or gentamicin at twice the control MIC (plus kanamycin and chloramphenicol for the plasmids), 48 h. Fold change of barcode share against drug-free plates; higher = less susceptible. Active = above 20 in both replicates (the paper's putatively resistant). '<' = one read or none on drug, '>' = one read or none on a drug-free plate. Shares are relative, so most strains fall below 1 when a few take over. Listed are strains with at least 15 reads on both drug-free plates, and hits; most hits rest on fewer reference reads. Replicate rank correlation about 0.5. Edits are read from barcodes.

B1: aroB V273W (protein)
chain: MERIVVTLGERSYPITIASGLFNEPASFLPLKSGEQVMLVTNETLAPLYLDKVRGVLEQAGVNVDSVILPDGEQYKSLAVLDTVFTALLQKPHGRDTTLVALGGGVVGDLTGFAAASYQRGVRFIQVPTTLLSQVDSSVGGKTAVNHPLGKNMIGAFYQPASVVVDLDCLKTLPPRELASGLAEVIKYGIILDGAFFNWLEENLDALLRLDGPAMAYCIRRCCELKAEVVAADERETGLRALLNLGHTFGHAIEAEMGYGNWLHGEAVAAGMWMAARTSERLGQFSSAETQRIITLLKRAGLPVNGPREMSAQAYLPHMLRDKKVLAGEMRLILPLAIGKSEVRSGVSHELVLNAIADCQSA
B2: aroB V273D (protein)
chain: MERIVVTLGERSYPITIASGLFNEPASFLPLKSGEQVMLVTNETLAPLYLDKVRGVLEQAGVNVDSVILPDGEQYKSLAVLDTVFTALLQKPHGRDTTLVALGGGVVGDLTGFAAASYQRGVRFIQVPTTLLSQVDSSVGGKTAVNHPLGKNMIGAFYQPASVVVDLDCLKTLPPRELASGLAEVIKYGIILDGAFFNWLEENLDALLRLDGPAMAYCIRRCCELKAEVVAADERETGLRALLNLGHTFGHAIEAEMGYGNWLHGEAVAAGMDMAARTSERLGQFSSAETQRIITLLKRAGLPVNGPREMSAQAYLPHMLRDKKVLAGEMRLILPLAIGKSEVRSGVSHELVLNAIADCQSA
B3: aroB V273Q (protein)
chain: MERIVVTLGERSYPITIASGLFNEPASFLPLKSGEQVMLVTNETLAPLYLDKVRGVLEQAGVNVDSVILPDGEQYKSLAVLDTVFTALLQKPHGRDTTLVALGGGVVGDLTGFAAASYQRGVRFIQVPTTLLSQVDSSVGGKTAVNHPLGKNMIGAFYQPASVVVDLDCLKTLPPRELASGLAEVIKYGIILDGAFFNWLEENLDALLRLDGPAMAYCIRRCCELKAEVVAADERETGLRALLNLGHTFGHAIEAEMGYGNWLHGEAVAAGMQMAARTSERLGQFSSAETQRIITLLKRAGLPVNGPREMSAQAYLPHMLRDKKVLAGEMRLILPLAIGKSEVRSGVSHELVLNAIADCQSA
B4: aroB V273P (protein)
chain: MERIVVTLGERSYPITIASGLFNEPASFLPLKSGEQVMLVTNETLAPLYLDKVRGVLEQAGVNVDSVILPDGEQYKSLAVLDTVFTALLQKPHGRDTTLVALGGGVVGDLTGFAAASYQRGVRFIQVPTTLLSQVDSSVGGKTAVNHPLGKNMIGAFYQPASVVVDLDCLKTLPPRELASGLAEVIKYGIILDGAFFNWLEENLDALLRLDGPAMAYCIRRCCELKAEVVAADERETGLRALLNLGHTFGHAIEAEMGYGNWLHGEAVAAGMPMAARTSERLGQFSSAETQRIITLLKRAGLPVNGPREMSAQAYLPHMLRDKKVLAGEMRLILPLAIGKSEVRSGVSHELVLNAIADCQSA
B5: aroB L39A (protein)
chain: MERIVVTLGERSYPITIASGLFNEPASFLPLKSGEQVMAVTNETLAPLYLDKVRGVLEQAGVNVDSVILPDGEQYKSLAVLDTVFTALLQKPHGRDTTLVALGGGVVGDLTGFAAASYQRGVRFIQVPTTLLSQVDSSVGGKTAVNHPLGKNMIGAFYQPASVVVDLDCLKTLPPRELASGLAEVIKYGIILDGAFFNWLEENLDALLRLDGPAMAYCIRRCCELKAEVVAADERETGLRALLNLGHTFGHAIEAEMGYGNWLHGEAVAAGMVMAARTSERLGQFSSAETQRIITLLKRAGLPVNGPREMSAQAYLPHMLRDKKVLAGEMRLILPLAIGKSEVRSGVSHELVLNAIADCQSA
B6: aroB L39W (protein)
chain: MERIVVTLGERSYPITIASGLFNEPASFLPLKSGEQVMWVTNETLAPLYLDKVRGVLEQAGVNVDSVILPDGEQYKSLAVLDTVFTALLQKPHGRDTTLVALGGGVVGDLTGFAAASYQRGVRFIQVPTTLLSQVDSSVGGKTAVNHPLGKNMIGAFYQPASVVVDLDCLKTLPPRELASGLAEVIKYGIILDGAFFNWLEENLDALLRLDGPAMAYCIRRCCELKAEVVAADERETGLRALLNLGHTFGHAIEAEMGYGNWLHGEAVAAGMVMAARTSERLGQFSSAETQRIITLLKRAGLPVNGPREMSAQAYLPHMLRDKKVLAGEMRLILPLAIGKSEVRSGVSHELVLNAIADCQSA
B7: lipA M235Q (protein)
chain: MSKPIVMERGVKYRDADKMALIPVKNVATEREALLRKPEWMKIKLPADSTRIQGIKAAMRKNGLHSVCEEASCPNLAECFNHGTATFMILGAICTRRCPFCDVAHGRPVAPDANEPVKLAQTIADMALRYVVITSVDRDDLRDGGAQHFADCITAIREKSPQIKIETLVPDFRGRMDRALDILTATPPDVFNHNLENVPRIYRQVRPGADYNWSLKLLERFKEAHPEIPTKSGLQVGLGETNEEIIEVMRDLRRHGVTMLTLGQYLQPSRHHLPVQRYVSPDEFDEMKAEALAMGFTHAACGPFVRSSYHADLQAKGMEVK

What follows are proteins tested against Escherichia coli (laboratory strain) (assay: barcode share on antibiotic plates over drug-free plates; higher = less susceptible). Settings: antibiotic: carbenicillin; 2× MIC (3.1 µg/mL).
Method: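 A pool of E. coli strains, each edited to carry one amino-acid change in an essential protein, was grown for 48 h on minimal glucose agar with or without antibiotic; strain barcodes were sequenced; mean of two replicates.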

Row | Protein | fold change of barcode share
1 | B1 | 1.77 ± 0.45
2 | B2 | 1.15 ± 0.11
3 | B3 | 4.2 ± 1.7
4 | B4 | 1.3 ± 0.32
5 | B5 | 0.478 ± 0.068
6 | B6 | 0.616 ± 0.008
7 | B7 | 0.48 ± 0.39

Same assay, conditions: antibiotic: gentamicin; 2× MIC (MIC 0.45 µg/mL)

Row | Protein | fold change of barcode share
8 | B1 | 0.0483 ± 0.021
9 | B2 | 0.0192 ± 0.011
10 | B3 | 0.086 ± 0.069
11 | B4 | 0.0308 ± 0.034
12 | B5 | 0.0164 ± 0.0053
13 | B6 | 0.0182 ± 0.0035
14 | B7 | 0.0417 ± 0.045
